# This is one part of the list. The list includes weakly bound sequences.
# Molecular target: T1, MBP-FoxP3dN (UniProt Q99JB6)
# T1 sequence: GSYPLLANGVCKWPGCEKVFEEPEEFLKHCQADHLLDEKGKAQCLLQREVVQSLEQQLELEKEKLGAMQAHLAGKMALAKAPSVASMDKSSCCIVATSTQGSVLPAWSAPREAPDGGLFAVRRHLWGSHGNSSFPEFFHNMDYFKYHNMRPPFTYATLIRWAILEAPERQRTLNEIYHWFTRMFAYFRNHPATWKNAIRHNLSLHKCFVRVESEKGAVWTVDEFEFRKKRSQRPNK
# Experiment: PD-seq (MBP pull-down with sequencing)
# Details: 20 mM Tris-HCl pH 7.5, 100 mM NaCl, 1.5 mM MgCl2, 0.4 uM protein, 0.1 uM dsDNA library, 30 min, room temperature, amylose pull-down; high values mean tight binding; double strand, one strand shown
row,Sequence,binding signal (RPM ratio (pull-down/input))
1,GATGATTGTTCTCCCAGCTGATGAATTTCGATAATCGAGTAAACAAATTTTCCTAATCTTTCTGTTCAAGCGCCATCTAC,0.411
2,GATGATTGTTCTCCCAGCTGATGAATTGCAACTTTCGAGTAAACAAATTTTCCTAATCTTTCTGTTCAAGCGCCATCTAC,2.55
3,GATGATTGTTCTCCCAGCTGATGAATTACTTATTTCGAGTAAACAAATTTTCCTAATCTTTCTGTTCAAGCGCCATCTAC,0.614
4,GATGATTGTTCTCCCAGCTGATGAATTGCACCTTTCGAGTAAACAAATTTTCCTAATCTTTCTGTTCAAGCGCCATCTAC,1.17
5,GATGATTGTTCTCCCAGCTGATGAATTCCATCCATCGAGTAAACAAATTTTCCTAATCTTTCTGTTCAAGCGCCATCTAC,0.388
6,GATGATTGTTCTCCCAGCTGATGAATTAGAGGATTCGAGTAAACAAATTTTCCTAATCTTTCTGTTCAAGCGCCATCTAC,0.33
7,GATGATTGTTCTCCCAGCTGATGAATTAGGCCCCTCGAGTAAACAAATTTTCCTAATCTTTCTGTTCAAGCGCCATCTAC,1.04
8,GATGATTGTTCTCCCAGCTGATGAATTGCACAAGTCGAGTAAACAAATTTTCCTAATCTTTCTGTTCAAGCGCCATCTAC,0.625
9,GATGATTGTTCTCCCAGCTGATGAATTGAATTTCTCGAGTAAACAAATTTTCCTAATCTTTCTGTTCAAGCGCCATCTAC,0.7
10,GATGATTGTTCTCCCAGCTGATGAATTGAAGCATTCGAGTAAACAAATTTTCCTAATCTTTCTGTTCAAGCGCCATCTAC,4.38
11,GATGATTGTTCTCCCAGCTGATGAATTGCATAAGTCGAGTAAACAAATTTTCCTAATCTTTCTGTTCAAGCGCCATCTAC,0.625
12,GATGATTGTTCTCCCAGCTGATGAATTGTTACAATCGAGTAAACAAATTTTCCTAATCTTTCTGTTCAAGCGCCATCTAC,1.61
13,GATGATTGTTCTCCCAGCTGATGAATTTTCGCAATCGAGTAAACAAATTTTCCTAATCTTTCTGTTCAAGCGCCATCTAC,3.04
14,GATGATTGTTCTCCCAGCTGATGAATTCAAGACTTCGAGTAAACAAATTTTCCTAATCTTTCTGTTCAAGCGCCATCTAC,0.32
15,GATGATTGTTCTCCCAGCTGATGAATTACCAGTTTCGAGTAAACAAATTTTCCTAATCTTTCTGTTCAAGCGCCATCTAC,0.37
16,GATGATTGTTCTCCCAGCTGATGAATTAACTACTTCGAGTAAACAAATTTTCCTAATCTTTCTGTTCAAGCGCCATCTAC,0.333
17,GATGATTGTTCTCCCAGCTGATGAATTAAATTGGTCGAGTAAACAAATTTTCCTAATCTTTCTGTTCAAGCGCCATCTAC,0.968
18,GATGATTGTTCTCCCAGCTGATGAATTGCTACAGTCGAGTAAACAAATTTTCCTAATCTTTCTGTTCAAGCGCCATCTAC,0.584
19,GATGATTGTTCTCCCAGCTGATGAATTACGGACATCGAGTAAACAAATTTTCCTAATCTTTCTGTTCAAGCGCCATCTAC,0.47
20,GATGATTGTTCTCCCAGCTGATGAATTTCAAAATTCGAGTAAACAAATTTTCCTAATCTTTCTGTTCAAGCGCCATCTAC,0.184
21,GATGATTGTTCTCCCAGCTGATGAATTCCGTTGATCGAGTAAACAAATTTTCCTAATCTTTCTGTTCAAGCGCCATCTAC,1.38

row,Sequence,binding signal (RPM ratio (pull-down/input))
1,GATGATTGTTCTCCCAGCTGATGAATTTGGGACCTCGAGTAAACAAATTTTCCTAATCTTTCTGTTCAAGCGCCATCTAC,0.378
2,GATGATTGTTCTCCCAGCTGATGAATTCCGAGTTTCGAGTAAACAAATTTTCCTAATCTTTCTGTTCAAGCGCCATCTAC,1.13
3,GATGATTGTTCTCCCAGCTGATGAATTCAGACCTTCGAGTAAACAAATTTTCCTAATCTTTCTGTTCAAGCGCCATCTAC,0.26
4,GATGATTGTTCTCCCAGCTGATGAATTACAATCCTCGAGTAAACAAATTTTCCTAATCTTTCTGTTCAAGCGCCATCTAC,0.553
5,GATGATTGTTCTCCCAGCTGATGAATTTGAAAACTCGAGTAAACAAATTTTCCTAATCTTTCTGTTCAAGCGCCATCTAC,0.25
6,GATGATTGTTCTCCCAGCTGATGAATTGTGTAAATCGAGTAAACAAATTTTCCTAATCTTTCTGTTCAAGCGCCATCTAC,0.96
7,GATGATTGTTCTCCCAGCTGATGAATTCGAAGGCTCGAGTAAACAAATTTTCCTAATCTTTCTGTTCAAGCGCCATCTAC,0.312
8,GATGATTGTTCTCCCAGCTGATGAATTTACAGGTTCGAGTAAACAAATTTTCCTAATCTTTCTGTTCAAGCGCCATCTAC,0.504
9,GATGATTGTTCTCCCAGCTGATGAATTGGCACTCTCGAGTAAACAAATTTTCCTAATCTTTCTGTTCAAGCGCCATCTAC,0.498
10,GATGATTGTTCTCCCAGCTGATGAATTAGGTCGCTCGAGTAAACAAATTTTCCTAATCTTTCTGTTCAAGCGCCATCTAC,0.347
11,GATGATTGTTCTCCCAGCTGATGAATTTAGTAATTCGAGTAAACAAATTTTCCTAATCTTTCTGTTCAAGCGCCATCTAC,1.36
12,GATGATTGTTCTCCCAGCTGATGAATTCGATGTTTCGAGTAAACAAATTTTCCTAATCTTTCTGTTCAAGCGCCATCTAC,3.43
13,GATGATTGTTCTCCCAGCTGATGAATTTCAGCTTTCGAGTAAACAAATTTTCCTAATCTTTCTGTTCAAGCGCCATCTAC,0.952
14,GATGATTGTTCTCCCAGCTGATGAATTGGCGAACTCGAGTAAACAAATTTTCCTAATCTTTCTGTTCAAGCGCCATCTAC,0.265
15,GATGATTGTTCTCCCAGCTGATGAATTAATGAGTTCGAGTAAACAAATTTTCCTAATCTTTCTGTTCAAGCGCCATCTAC,0.903
16,GATGATTGTTCTCCCAGCTGATGAATTCCTCCGCTCGAGTAAACAAATTTTCCTAATCTTTCTGTTCAAGCGCCATCTAC,0.198
17,GATGATTGTTCTCCCAGCTGATGAATTTGAGTGGTCGAGTAAACAAATTTTCCTAATCTTTCTGTTCAAGCGCCATCTAC,1.09
18,GATGATTGTTCTCCCAGCTGATGAATTTTGCCATTCGAGTAAACAAATTTTCCTAATCTTTCTGTTCAAGCGCCATCTAC,5.66
19,GATGATTGTTCTCCCAGCTGATGAATTCCCGGTTTCGAGTAAACAAATTTTCCTAATCTTTCTGTTCAAGCGCCATCTAC,0.323
20,GATGATTGTTCTCCCAGCTGATGAATTGAGGAGTTCGAGTAAACAAATTTTCCTAATCTTTCTGTTCAAGCGCCATCTAC,0.338
21,GATGATTGTTCTCCCAGCTGATGAATTGCACTTATCGAGTAAACAAATTTTCCTAATCTTTCTGTTCAAGCGCCATCTAC,1.9

row,Sequence,binding signal (RPM ratio (pull-down/input))
1,GATGATTGTTCTCCCAGCTGATGAATTACCATAATCGAGTAAACAAATTTTCCTAATCTTTCTGTTCAAGCGCCATCTAC,0.448
2,GATGATTGTTCTCCCAGCTGATGAATTAAATAATTCGAGTAAACAAATTTTCCTAATCTTTCTGTTCAAGCGCCATCTAC,0.45
3,GATGATTGTTCTCCCAGCTGATGAATTGGGACGGTCGAGTAAACAAATTTTCCTAATCTTTCTGTTCAAGCGCCATCTAC,0.253
4,GATGATTGTTCTCCCAGCTGATGAATTCTCAGATTCGAGTAAACAAATTTTCCTAATCTTTCTGTTCAAGCGCCATCTAC,0.183
5,GATGATTGTTCTCCCAGCTGATGAATTCCCTTATTCGAGTAAACAAATTTTCCTAATCTTTCTGTTCAAGCGCCATCTAC,0.343
6,GATGATTGTTCTCCCAGCTGATGAATTCTAGGCTTCGAGTAAACAAATTTTCCTAATCTTTCTGTTCAAGCGCCATCTAC,0.304
7,GATGATTGTTCTCCCAGCTGATGAATTCGCCCCGTCGAGTAAACAAATTTTCCTAATCTTTCTGTTCAAGCGCCATCTAC,0.285
8,GATGATTGTTCTCCCAGCTGATGAATTGGATTCGTCGAGTAAACAAATTTTCCTAATCTTTCTGTTCAAGCGCCATCTAC,0.459
9,GATGATTGTTCTCCCAGCTGATGAATTGCAAGACTCGAGTAAACAAATTTTCCTAATCTTTCTGTTCAAGCGCCATCTAC,0.524
10,GATGATTGTTCTCCCAGCTGATGAATTTTAGGCGTCGAGTAAACAAATTTTCCTAATCTTTCTGTTCAAGCGCCATCTAC,0.498
11,GATGATTGTTCTCCCAGCTGATGAATTATACGCGTCGAGTAAACAAATTTTCCTAATCTTTCTGTTCAAGCGCCATCTAC,0.691
12,GATGATTGTTCTCCCAGCTGATGAATTGTAATTATCGAGTAAACAAATTTTCCTAATCTTTCTGTTCAAGCGCCATCTAC,2.16
13,GATGATTGTTCTCCCAGCTGATGAATTAAGTATATCGAGTAAACAAATTTTCCTAATCTTTCTGTTCAAGCGCCATCTAC,2.29
14,GATGATTGTTCTCCCAGCTGATGAATTAGTCGTCTCGAGTAAACAAATTTTCCTAATCTTTCTGTTCAAGCGCCATCTAC,1.45
15,GATGATTGTTCTCCCAGCTGATGAATTCGATCCTTCGAGTAAACAAATTTTCCTAATCTTTCTGTTCAAGCGCCATCTAC,0.306
16,GATGATTGTTCTCCCAGCTGATGAATTACCCACTTCGAGTAAACAAATTTTCCTAATCTTTCTGTTCAAGCGCCATCTAC,0.338
17,GATGATTGTTCTCCCAGCTGATGAATTCTTGGCATCGAGTAAACAAATTTTCCTAATCTTTCTGTTCAAGCGCCATCTAC,0.621
18,GATGATTGTTCTCCCAGCTGATGAATTGTACGAATCGAGTAAACAAATTTTCCTAATCTTTCTGTTCAAGCGCCATCTAC,0.313
19,GATGATTGTTCTCCCAGCTGATGAATTACTCTTATCGAGTAAACAAATTTTCCTAATCTTTCTGTTCAAGCGCCATCTAC,0.436
20,GATGATTGTTCTCCCAGCTGATGAATTCGCTCCGTCGAGTAAACAAATTTTCCTAATCTTTCTGTTCAAGCGCCATCTAC,0.289
21,GATGATTGTTCTCCCAGCTGATGAATTGCTCCTGTCGAGTAAACAAATTTTCCTAATCTTTCTGTTCAAGCGCCATCTAC,0.427

# Source: article PMC12820563
